The values that follow come from paper PMC12136788.

T1: UNK ZnF1-3 (human, UniProt Q9C0B0 31-174)
T1 sequence: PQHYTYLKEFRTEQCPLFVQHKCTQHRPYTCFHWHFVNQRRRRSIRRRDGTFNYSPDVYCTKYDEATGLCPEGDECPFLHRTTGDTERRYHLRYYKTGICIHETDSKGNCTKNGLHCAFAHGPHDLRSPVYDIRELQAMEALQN

B1: chr2:136607347:136607348:+_ENSMUSG00000027273_ENSMUST00000028727|mus_mus|motif|central (ssRNA)
RNA: GGGAGUUCUACAGUCCGACGAUCGAAUAGCCAUGAGGAACCAAAGACAGCACAUUUGGAGAGAUUCAGAGCCUGACACCCGGAGAAAGGAUUGUGGCAGUAGCUCUGUGGAAUGUCACAGUUUUACAAGAACAAUACUGUGUACAACAGAGGAUUGAGCAUCA
B2: chr1:68170538:68170539:-_ENSG00000172380_ENST00000370982|hu_mus|FALSE|FALSE (ssRNA)
RNA: GGGAGUUCUACAGUCCGACGAUCCUUUGCAACGUUCUUUCAUUACCUUUUUUUUUGUACAAAAAUUUCACGGAAAUUUACCUACACAGAGUCAGGAUAAUGAUGUAACUCUGAAGGGAGGGAGCUACCGCAGGAAGUUUCAGGCAACAGAGGAUUGAGCAUCA
B3: chr22:36164377:36164378:-_ENSG00000100320_ENST00000405409|hu_hu|FALSE|FALSE (ssRNA)
RNA: GGGAGUUCUACAGUCCGACGAUCACGGCCCUCUACCACGGUGCCGUGUAAUUUCUCCCUGGCCCUGUCUGCAUCAGCACUAUUCUCGAAAGUUACGAACCCGAAUCCCUUAGAGCCACGUUCAUUAAAGAUUAUUUCUACAUCCAACAGAGGAUUGAGCAUCA
B4: chr15:68825492:68825493:+_ENSMUSG00000022332_ENSMUST00000022954|mus_hu|FALSE|FALSE (ssRNA)
RNA: GGGAGUUCUACAGUCCGACGAUCAAUCACCACAUCGAUGUACUUUUCUUCAUCCUUGCCUUCUCCUUUUUGAAACUUUUCUAUUUCUUGGUUCACCAGGCGCAGGGCGUGCGUGAAGGAGGGGUCCAGGGAGUCCUUCUCCGCCAACAGAGGAUUGAGCAUCA
B5: 98673252_98673528_14220_CDS_ENSMUSG00000048154_ENSMUST00000023741|mouse|control|control (ssRNA)
RNA: GGGAGUUCUACAGUCCGACGAUCAUUCACCAUCUUCUGCUGCACCGAUGGGGGUGGGGUGGGGGGCAGCGACGAGGGUGGUGUCGGCGGGUUACUCAGGUUAUUCUUGGUAAGCAGCUGAGAGUAGUAGUCAGGGCCGGUGUGCAACAGAGGAUUGAGCAUCA
B6: 151023887_151027089_614_3pUTR_ENSMUSG00000058454_ENSMUST00000124340|mouse|control|control (ssRNA)
RNA: GGGAGUUCUACAGUCCGACGAUCCAUUCACCUCAUACUUGUUUACAACCCCUGCUGGAGUAAUGGCACCUUCUUGGACGCCUCCCACAUAACCUGGCAGAAAUCUGUGGCAGAAGUCAGGAAGCCAGGAAUAAAGCAGCACCUCAACAGAGGAUUGAGCAUCA

Some of the results follow.

For this experiment, the target named is T1, UNK ZnF1-3. Nature of the experiment: nsRBNS (natural sequence RNA bind-n-seq); RBNS binding buffer (assumed for nsRBNS): 25 mM Tris pH 7.5, 150 mM KCl, 3 mM MgCl2, 0.01% Triton X-100, 500 ug/ml BSA, 20 U/ml SUPERase-In, 4 C; UNK is unkempt and MSI1 is Musashi-1; names of the RNAs are library labels; protein concentration not given here; high values mean tight binding.
On to B1, for which the binding signal was found to be 1.72 enrichment R. Under B2 stands 1.4 enrichment R. Turning to B3, the binding signal came out at 1.14 enrichment R. As to B4, the binding signal is 0.997 enrichment R. In the case of B5, the binding signal was found to be 0.983 enrichment R.

Turning to B6, the binding signal came to 1.33 enrichment R.
